According to PubChem BioAssay AID1460 (National Center for Advancing Translational Sciences (NCATS), 2008):
The whole screen tested about 270,000 compounds, of which about 5,800 (2.1%) were called active. Inconclusive means that the source gave no clear call. Such entries were picked first, then a sample of the others. The call rests on the fitted dose curve; in most records, active means well fitted inhibition curve with a large enough effect; inconclusive means small, poorly fitted or top-dose-only effect; inactive means flat fitted curve, though single readings scatter. A potency beside an inconclusive call is a rough fit, not a confirmed value.

target: Microtubule-associated protein tau (Homo sapiens) (UniProt P10636); assay: qHTS for Inhibitors of Tau Fibril Formation, Thioflavin T Binding; conditions: recombinant tau K18 P301L (four-repeat tau fragment), heparin-induced fibrillization, ThT fluorescence; series mostly up to 57.4 µM; further: nearly all actives have a fitted effect of over 55% in size
UniProt P10636, sequence (P10636 whole entry, looked up, the tested form may be a part): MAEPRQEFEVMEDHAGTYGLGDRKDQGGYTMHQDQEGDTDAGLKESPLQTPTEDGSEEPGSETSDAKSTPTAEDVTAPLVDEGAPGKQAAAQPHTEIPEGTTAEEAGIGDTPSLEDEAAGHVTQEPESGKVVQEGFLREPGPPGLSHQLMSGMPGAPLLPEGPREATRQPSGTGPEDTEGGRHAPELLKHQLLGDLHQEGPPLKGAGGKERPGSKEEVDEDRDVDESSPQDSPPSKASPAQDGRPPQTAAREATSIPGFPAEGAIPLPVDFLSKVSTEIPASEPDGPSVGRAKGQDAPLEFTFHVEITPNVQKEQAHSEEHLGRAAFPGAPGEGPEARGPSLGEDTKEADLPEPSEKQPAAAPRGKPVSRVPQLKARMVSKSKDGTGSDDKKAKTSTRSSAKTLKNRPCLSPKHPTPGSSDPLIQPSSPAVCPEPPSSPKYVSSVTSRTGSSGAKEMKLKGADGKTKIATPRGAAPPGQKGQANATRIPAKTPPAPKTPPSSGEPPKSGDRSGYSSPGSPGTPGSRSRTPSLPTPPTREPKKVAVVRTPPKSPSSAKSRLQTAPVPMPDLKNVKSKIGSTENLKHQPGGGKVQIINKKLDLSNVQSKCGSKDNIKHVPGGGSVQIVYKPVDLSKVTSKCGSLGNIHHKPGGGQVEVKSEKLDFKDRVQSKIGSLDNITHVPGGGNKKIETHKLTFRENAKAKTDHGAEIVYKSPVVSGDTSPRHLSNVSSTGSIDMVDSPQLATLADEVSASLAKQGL
Procedure, shortened: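 Tau K18 P301L fragment (15 uM unlabeled plus 0.24 uM Alexa 594-labeled) in 100 mM sodium acetate pH 7 with compound, fibrillization induced by 20 uM heparin for 6 hr at 37 C. Thioflavin T (30 uM) added, fluorescence read after 1 hr (ex 450, em 510 nm).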
Potency means the concentration at half of the fitted maximal effect; tags describe the fitted curve by direction and shape.

Structure (SMILES)	Potency
CCOC(=O)c1ccc(CN(Cc2ccccc2C)S(=O)(=O)c2ccc(F)c(C(=O)Nc3cccc(OC)c3)c2)cc1	inactive
CCn1nc(NC(=O)c2ccccn2)c2cc3cccc(C)c3nc21	inactive
O=c1ccc(N=Nc2ccccc2)ccc1O	active: 4.47 µM
COC(=O)c1ccccc1NC(=O)c1cnn2c(C)cc(C)nc12	inconclusive: 20 µM [inhibitor, partial curve]
Cc1ccc(C)c(NC(=O)CN(C)C(=O)[C@@H](NC(=O)c2ccc(C(C)(C)C)cc2)C(C)C)c1	inconclusive: 15.8 µM [inhibitor, partial curve, poor fit]
Cc1c(N(C)C)nc2ccccc2c1N	inactive
O=C(Nc1ccc(CN2CCCCC2)cc1)Nc1ccc(Br)cc1Cl	inactive
Cc1c(C)n(Cc2ccc(F)cc2)c2ccc(C(=O)Nc3ccc(Cl)cc3)cc12	inactive
O=C(OC(C(=O)Nc1ccc(Cl)cc1C(F)(F)F)c1ccccc1)c1c(Cl)cccc1Cl (stereo unspecified)	inactive
Nc1ccc2oc(CCc3ccccc3)nc2c1	inconclusive: 20 µM [inhibitor, partial curve]
COc1ccc(OC)c(NC(=O)CC(NC(C)=O)c2ccccc2)c1 (stereo unspecified)	inactive
O=C(O)C1CSC(c2coc3ccccc3c2=O)N1 (stereo unspecified)	inconclusive: 25.1 µM [inhibitor, partial curve]
COc1ccc(C2c3sc(=O)[nH]c3SC3C4CCC(C4)C23)cc1 (stereo unspecified)	inconclusive: 39.8 µM [inhibitor, partial curve]
COCCOC(=O)c1c(C)oc2ccc(OC(=O)c3c(OC)cccc3OC)cc12	inconclusive: 1.12 µM [inhibitor, partial curve]
O=C(COC(=O)COc1ccc(Nc2ccccc2)cc1)NCc1ccco1	inconclusive: 17.8 µM [inhibitor, partial curve]
COc1ccccc1Nc1nc(N)nc(CSC(=S)N2CCCCC2)n1	inactive
CCCn1nc(NC(=O)c2ccco2)c2cc3cc(C)ccc3nc21	inconclusive: 39.8 µM [inhibitor, single point]
CC(=O)Nc1ccc(C(C#N)c2ccccc2)cc1 (stereo unspecified)	inactive
CCOc1ccc(NC2CCN(C(C)=O)CC2)cc1	inconclusive: 31.6 µM [inhibitor, single point]
COc1ccc(-c2cc(N)n(S(=O)(=O)c3c(F)c(F)c(F)c(F)c3F)n2)cc1OC	inconclusive: 12.6 µM [inhibitor, partial curve]
CCCCC1=CC2=C(OC(C)=O)C(=O)C(C)(OC(=O)CCC(=O)OC)C(=O)C2=CO1 (stereo unspecified)	inconclusive: 39.8 µM [inhibitor, single point]
